# Assay results published in the supplement of paper PMC7826260.
# Some of the results follow. Each Rep nickase domain was tested in vitro on the same pool of single strands (1 h at 37 °C, 3 µM enzyme); the outer parts of the 90-letter strands are left off. The score is log2 (uncut reads / reads without enzyme); uncut sequences lie near 0, cut ones below; no hit call is given. Reads are scaled to the total; values above 0 arise when much of the pool is cut.
# Columns and labels:
# Experiment in all cases: uncleaved DNA left, log2 of reads against the no-enzyme library (log2 ratio); higher = less cleavage (more negative = more Rep cleavage of the k-mer); sequences stand for … in CTCGTCCG…ACCGGAGA
# [1] = system: T1, Rep nickase domain of Muscovy duck circovirus
# T1 sequence (Rep 1-111, printed without the tag): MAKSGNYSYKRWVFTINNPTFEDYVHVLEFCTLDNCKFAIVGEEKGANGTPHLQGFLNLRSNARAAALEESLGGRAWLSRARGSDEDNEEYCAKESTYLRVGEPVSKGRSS
# Procedure: (§1)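 A pool of 90-nt single-stranded DNAs with seven random bases just before the constant AC of the nick site (name = the seven bases) was cut by 3 µM recombinant His6-SUMO-tagged Rep nickase domain (300 nM DNA, 50 mM HEPES pH 8.0, 50 mM NaCl, 1 mM MnCl2, 1 h, 37 °C, three replicates). Uncut DNA was amplified and sequenced.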
# [2] = system: T2, Rep nickase domain of banana bunchy top virus
# T2 sequence (Rep 1-94, printed without the tag): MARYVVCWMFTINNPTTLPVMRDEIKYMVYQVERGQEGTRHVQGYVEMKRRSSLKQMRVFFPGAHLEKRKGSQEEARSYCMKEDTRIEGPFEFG
# Procedure: as §1
# [3] = system: T3, Rep nickase domain of cabbage leaf curl virus
# T3 sequence (Rep 1-116, printed without the tag): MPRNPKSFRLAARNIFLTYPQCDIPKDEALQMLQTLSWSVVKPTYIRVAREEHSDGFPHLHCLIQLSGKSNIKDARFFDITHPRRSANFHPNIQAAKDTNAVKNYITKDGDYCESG
# Procedure: as §1
# [4] = system: T4, Rep nickase domain of chickpea chlorotic dwarf virus
# T4 sequence (Rep 1-124, printed without the tag): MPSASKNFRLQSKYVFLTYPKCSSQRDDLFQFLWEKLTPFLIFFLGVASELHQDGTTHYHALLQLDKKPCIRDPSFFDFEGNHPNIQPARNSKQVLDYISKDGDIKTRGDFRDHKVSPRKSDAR
# Procedure: as §1
# [5] = system: T5, Rep nickase domain of faba bean necrotic yellows virus
# T5 sequence (Rep 1-98, printed without the tag): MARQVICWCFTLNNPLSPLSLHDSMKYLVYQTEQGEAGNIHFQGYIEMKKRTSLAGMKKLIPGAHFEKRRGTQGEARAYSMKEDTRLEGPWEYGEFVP
# Procedure: as §1
# [6] = system: T6, Rep nickase domain of maize striate mosaic virus
# T6 sequence (Rep 1-117, printed without the tag): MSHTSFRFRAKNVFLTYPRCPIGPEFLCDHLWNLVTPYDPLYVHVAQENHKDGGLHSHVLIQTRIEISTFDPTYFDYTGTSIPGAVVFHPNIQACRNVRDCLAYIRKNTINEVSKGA
# Procedure: as §1
# [7] = system: T7, Rep nickase domain of porcine circovirus 2
# T7 sequence (Rep 2-116, printed without the tag): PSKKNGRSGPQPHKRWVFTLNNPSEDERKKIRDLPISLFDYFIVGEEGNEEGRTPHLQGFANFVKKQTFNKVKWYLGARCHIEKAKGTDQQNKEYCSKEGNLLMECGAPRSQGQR
# Procedure: as §1
# [8] = system: T8, Rep nickase domain of tomato golden mosaic virus
# T8 sequence (Rep 1-124, printed without the tag): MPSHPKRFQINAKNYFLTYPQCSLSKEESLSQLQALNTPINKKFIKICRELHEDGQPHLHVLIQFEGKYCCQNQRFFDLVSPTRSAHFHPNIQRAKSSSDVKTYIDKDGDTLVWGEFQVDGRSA
# Procedure: as §1
# [9] = system: T9, Rep nickase domain of tomato yellow leaf curl virus
# T9 sequence (Rep 1-136, printed without the tag): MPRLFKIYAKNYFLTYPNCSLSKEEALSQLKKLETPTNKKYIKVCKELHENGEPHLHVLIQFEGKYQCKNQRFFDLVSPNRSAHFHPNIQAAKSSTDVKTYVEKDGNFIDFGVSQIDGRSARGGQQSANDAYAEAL
# Procedure: as §1
# [10] = system: T10, Rep nickase domain of wheat dwarf virus
# T10 sequence (Rep 1-137, printed without the tag): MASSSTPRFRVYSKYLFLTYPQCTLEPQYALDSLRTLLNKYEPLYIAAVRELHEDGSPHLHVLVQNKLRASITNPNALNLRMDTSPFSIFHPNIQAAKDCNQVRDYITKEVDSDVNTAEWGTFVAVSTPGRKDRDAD
# Procedure: as §1
Sequence,uncleaved DNA left (log2) [1],uncleaved DNA left (log2) [2],uncleaved DNA left (log2) [3],uncleaved DNA left (log2) [4],uncleaved DNA left (log2) [5],uncleaved DNA left (log2) [6],uncleaved DNA left (log2) [7],uncleaved DNA left (log2) [8],uncleaved DNA left (log2) [9],uncleaved DNA left (log2) [10]
GACACGG,-0.0914,0.0603,0.416,1.44,-0.027,1.87,0.0997,0.034,-0.136,0.0841
CTGGCAA,0.000338,0.0298,-0.016,0.0793,0.0664,-0.491,0.145,0.0911,-0.00445,-0.00112
GGGATGG,-0.0306,0.0102,0.857,1.88,0.0387,2.17,0.21,0.0186,0.0358,0.0817
ACACTTA,-0.173,-0.129,-0.427,-1.52,-0.153,-0.957,-0.0381,-0.128,-0.0869,-0.061
GAGGTCT,-0.0508,0.0158,0.595,-0.0619,0.0175,1.88,-0.943,0.0511,0.0165,0.0594
TTTGCCG,-0.0961,-0.193,-0.925,0.494,-0.171,-0.806,0.0179,-0.341,-0.000988,-0.177
CTTACTG,-0.0917,-0.0117,-0.161,-0.247,-0.126,0.698,-0.0964,-0.147,-0.0697,0.0113
TCTATGC,0.204,0.219,-0.404,-0.49,0.0427,-1,0.363,0.112,0.145,0.114
GGACCTC,0.0443,0.116,0.512,1.23,-0.0338,1.75,0.177,-0.0334,0.124,0.171
TGGTCTA,-0.0298,-0.0217,0.286,0.232,-0.144,1.03,-0.153,-0.0692,0.0775,0.0504
TAATAAC,-0.0117,-0.0259,-3.16,-3.01,0.00782,-2.76,0.0696,-2.45,0.0064,-2.73
CATTAGC,-0.0292,-0.0672,-0.665,-0.798,0.075,-1.21,0.188,-0.0064,0.0265,-0.0105
AGTGTTT,0.134,-0.093,0.0913,-0.959,-0.0397,0.424,-3.17,0.0927,0.0623,-0.00459
ATACCAG,-0.065,0.0365,-0.348,-0.352,0.105,-0.97,-0.0196,0.0507,0.0158,-0.0109
CTCCGGT,0.0208,-0.169,0.212,0.422,-0.0756,1.24,0.0521,0.0347,-0.0701,0.00624
ATCGGTT,0.00202,0.0211,0.237,0.135,0.0203,0.969,0.118,0.015,0.0608,0.106
TAGCTCA,-0.019,0.0745,-0.195,-2.04,-0.0192,-0.402,-2.07,0.0382,0.179,-0.00195
TATGTGC,0.0625,-0.142,-0.692,-0.692,-0.0064,-1.23,0.0465,-0.161,-0.0315,-0.0873
ACCGGAC,0.0482,0.0284,0.66,1.16,0.0546,1.64,0.193,0.00357,-0.0263,0.0376
GTTGGCG,-0.0245,-0.111,-0.712,0.539,0.00305,-0.396,-0.00592,-0.0866,-0.0877,-0.196
TTTGGTG,-0.0356,-0.194,-0.659,-0.727,0.0412,-1.14,0.0556,-0.148,-0.0174,-0.198
CGGGTTT,-0.053,-0.0641,0.365,0.243,-0.0676,1.24,-0.105,-0.0501,-0.0506,-0.0627
GTGGCGC,-0.00775,-0.0386,0.0204,0.0737,-0.0291,0.0539,-0.000242,-0.0742,-0.0515,-0.144
TCGCTAG,0.0122,0.0479,-0.113,-0.155,-0.00874,-0.762,0.139,-0.0341,0.133,0.146
TCCGTGC,-0.0445,-0.0927,-0.302,-0.402,-0.0214,-0.728,0.185,-0.0217,-0.0466,-0.0642
GAGTTGA,0.0516,-0.0471,0.102,0.464,-0.0961,0.338,-1.87,0.116,0.054,0.0253
TCTCGCC,0.00647,-0.135,-0.0638,-0.403,0.042,-0.823,-0.0277,-0.0341,-0.0707,-0.208
TGCGATA,0.0841,-0.0872,-0.144,-0.317,0.02,-0.425,0.0133,0.102,0.0295,-0.0348
TTTATGA,-0.0222,-0.0444,0.233,0.299,0.0359,-0.13,0.0423,-0.0305,0.143,0.119
ATAACGC,-0.0788,-0.141,-0.642,-0.8,-0.0416,-1.09,0.0654,-0.104,-0.106,-0.174
